According to PubChem BioAssay AID686979 (National Center for Advancing Translational Sciences (NCATS), 2013):
“And” between values parts separate entries of the source, which are not always exact repeats. Equal values may be shown once. The whole screen tested about 420,000 compounds, of which about 50,000 (12%) were called active. Inconclusive means that the source gave no clear call. Such entries were picked first, then a sample of the others. Calls follow the shape of the dose curve; as a rule, active = well fitted inhibition curve with a large enough effect; inconclusive = small, poorly fitted or top-dose-only effect; inactive = flat fitted curve, though single readings scatter. Potencies of inconclusive entries are left out as doubtful fits. The source holds several records for some structures; these can differ, active in one and inactive in another.

Test: qHTS for Inhibitors of human tyrosyl-DNA phosphodiesterase 1 (TDP1): qHTS in cells in presence of CPT; also: nearly all actives have a fitted effect of over 55% in size
Conditions: chicken DT40 Tdp1-/-;hTDP1 cells + 20 nM CPT, ATP luminescence, 48 h; activity change, negative = growth inhibition: at 46.2 µM (top of the series) unless noted
Outline: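 Chicken DT40 Tdp1-/- cells stably complemented with human TDP1 were seeded at 400 cells/well in medium containing 20 nM camptothecin, exposed to pin-transferred compounds, and grown at 37 °C for at least 48 hr. Viability was read as ATP luminescence.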
% is scaled to controls: 0 for no effect and ±100 for the full control effect; potency is read from the fitted curve at half-maximal effect; tags tell the direction and shape of the fitted curve.

SMILES | Potency | activity change, negative = growth inhibition
c1ccc(-c2cc3c(NCC4COc5ccccc5O4)ncnc3s2)cc1 (configuration not stated) | inconclusive [inhibitor, single point] | 
COC(=O)N1CCC2(CC1)CN(C(=O)Nc1cccc(C#N)c1)C2 | inactive | 
COc1cc(CN2CCC(Cc3ccccc3)CC2)cc(OC)c1OC | inconclusive [inhibitor, single point] | 
O=C(CN(c1ccc(Cl)cc1)S(=O)(=O)c1ccc(Cl)c([N+](=O)[O-])c1)NCCc1ccccc1 | inconclusive [inhibitor, partial curve] | 
Nc1nc2c3ccccc3nc(Cc3ccccc3)n2n1 | inconclusive [inhibitor, partial curve, poor fit] | 
C[C@H]1CN([C@@H](C)CO)C(=O)c2cccc(NC(=O)Nc3ccc(C(F)(F)F)cc3)c2O[C@H]1CN(C)C | active: 20.6 µM | 
CCCc1c(C(=O)Nc2ccc(F)cc2C)cnn1-c1ccccc1 | inactive | 
CO/N=C(\Cn1ncc(N2CCCC2)c(Cl)c1=O)c1ccc(Cl)cc1 | active: 29.1 µM | 
Cc1cc2nc(CCN(C(=S)NCC3CCCO3)C3CCCC3)[nH]c2cc1C (configuration not stated) | inconclusive [inhibitor, single point] | 
COc1cccc(NC(=O)c2oc3ccc(S(=O)(=O)N4CCCCCC4)cc3c2C)c1 | active: 18.4 µM | 
COc1ccc(CC(=O)Nc2sc3c(c2C(N)=O)CCCC3)cc1 | inactive | 
CCOc1ccc(S(=O)(=O)N2CCC(c3ccncc3)CC2)cc1 | active: 11.6 µM | 
O=C1NC[C@H](CCCCN2C[C@H](Cc3ccccc3)N(CCc3ccccc3)C(=O)C2=O)N(CCC2CCCCC2)C1=O | inconclusive [inhibitor, single point] | 
C#CCOCCOCCOCCNc1nc(N2CCN(C(=O)CCCCCCCCCCNC(=O)[C@H](CCCCN)n3cc(CCO)nn3)CC2)nc(N2CCN(C(=O)CCCCCCCCCCNC(=O)[C@H](CCCN=C(N)N)n3cc(C[C@@H](C)CC)nn3)CC2)n1 | inconclusive [inhibitor, single point] | 
CC1(C(=O)OCC(=O)NC(=O)NCc2ccccc2)CC1(Cl)Cl (configuration not stated) | inconclusive [inhibitor, single point] | 
Cc1cc(C)n(-c2nc(C)c(C)c(=O)n2CC(=O)Nc2cccc([N+](=O)[O-])c2)n1 | inconclusive [inhibitor, single point] | 
CCOC(=O)c1ccc(NC(=O)Cn2c3ncccc3c(=O)n2-c2ccc(C)c(C)c2)cc1 | inconclusive [inhibitor, single point] | 
Cc1cccc(NCc2nnc(-c3ccccc3)o2)c1C | inconclusive [inhibitor, single point] | 
CCOc1ccc(OCCC(=O)NNC(=O)c2ccccc2Cl)cc1 | inactive | 
COc1cccc(NC(=O)CN(c2cccc(OC)c2)S(C)(=O)=O)c1 | inconclusive [inhibitor, partial curve] | 
CC1SC(C)C(=O)N(CC(=O)NC2CCCCC2)C1=O (configuration not stated) | inactive | 
COc1cccc(NC(=O)C2CCN(S(=O)(=O)c3ccc4[nH]c5c(c4c3)CCCCC5)CC2)c1 | inconclusive [inhibitor, single point] | 
COc1c(F)cccc1C1=CC(=O)C[C@H](c2ccc3c(c2)OCO3)C1 | inconclusive [inhibitor, partial curve] | 

SMILES | Potency | activity change, negative = growth inhibition
CCC(C)NC(=O)c1c(C)oc2nc(C)nc(N3CCOCC3)c12 (configuration not stated) | inactive | 
COc1ccccc1NC(=O)C1CCCN(c2ncnc3onc(-c4ccc(F)cc4)c23)C1 (configuration not stated) | inconclusive [inhibitor, single point] | 
COC(=O)c1cc(CNC(=O)c2cccc(C)c2)cc(NC(=O)c2ccncc2)c1 |  | inactive: 2.29% [at 9.04 µM]
CCOc1ccc(N(C(=O)/C=C/C(=O)Nc2cc(C)on2)C(C(=O)NC2CCCC2)c2ccccc2C)cc1 (configuration not stated) | active: 16.4 µM | 
CC1(C)CC(=O)C2=C(C1)c1c(ccc3ncccc13)NC2c1cccs1 (configuration not stated) | active: 5.17 µM | 
COc1ccc(N2CCN(C(CNC(=O)c3ccco3)c3cccnc3)CC2)cc1 (configuration not stated) |  | inconclusive: -30% [inhibitor]
Nc1nnnn1/N=C/c1cccc(O)c1 | inconclusive [inhibitor, single point] | 
Cc1cc(Nc2ccc(Br)c(C)c2)n2nc(-c3ccco3)nc2n1 | inconclusive [inhibitor, partial curve, poor fit] | 
O=C(CNC(=O)c1cccc(F)c1)N/N=C/c1ccc([N+](=O)[O-])s1 | active: 18.4 µM | 
COc1cc(/C=C/C(=O)OCC(=O)Nc2cc(S(=O)(=O)N3CCCC3)ccc2Cl)cc(OC)c1OC | inconclusive [inhibitor, single point] | 
CC(=O)N1CCN(CC(=O)Nc2c(Cl)cc(Cl)cc2Cl)CC1 | inconclusive [inhibitor, single point] | 
CCN(CC)C(=O)Cn1c(=O)n(CCc2ccccc2)c(=O)c2ccccc21 | inconclusive [inhibitor, single point] | 
COc1ccccc1N1CCN(Cc2nc(N)nc(Nc3ccc(C)c(Cl)c3)n2)CC1 | active: 14.6 µM | 
CCOC(=O)c1cccc(NC(=O)N2CC=C(c3c[nH]c4ccccc34)CC2)c1 | inconclusive [inhibitor, single point] | 
COC(=O)c1cc(NC(=O)Cn2c(=O)oc3ccccc32)cc(C(=O)OC)c1 | inactive | 
CCOc1ccc2nc(/N=C/c3c(C)[nH]n(-c4ccc(C)cc4)c3=O)sc2c1 | active: 16.4 µM | 
COc1ccc(NC(=O)c2cc([N+](=O)[O-])ccc2NC(=O)CNC2CCCCC2C)c(OC)c1 (configuration not stated) | inconclusive [inhibitor, single point] | 
O=C(CC1NCCc2ccccc21)Nc1ccc(Oc2ccccc2)cc1 (configuration not stated) | inconclusive [inhibitor, single point] | 
Cc1ccc(SCCC(=O)OC(C)C(=O)Nc2ccccc2)cc1 (configuration not stated) | inconclusive [inhibitor, single point] | 
CCOC(=O)C1(CCOC)CCN(Cc2cnc(-c3cccc(C)c3)nc2)CC1 | inconclusive [inhibitor, single point] | 
COc1cccc(S(=O)(=O)N(C)C[C@H]2Oc3cc(Br)ccc3S(=O)(=O)N([C@@H](C)CO)C[C@H]2C)c1 | active: 20.6 µM | 
O=C(CCC(=O)Nc1ccccc1)N/N=C/c1cccnc1 | inconclusive [inhibitor, single point] | 
O=C(CN1CCN(C(c2ccccc2)c2ccccc2)CC1)NC(=O)NCc1ccco1 | active: 20.6 µM | 

SMILES | Potency | activity change, negative = growth inhibition
Cc1ccnc(Nc2nc(-c3ccc(O)c(O)c3)cs2)c1 | active: 2.06 µM | 
COc1ccc(OC)c(NC(=O)N2CC3CCCN3c3ccccc32)c1 (configuration not stated) | inconclusive [inhibitor, single point] | 
O=C(CCCCCN1C(=O)[C@@H]2Cc3ccccc3CN2C1=O)Nc1ccccc1F | inconclusive [inhibitor, single point] | 
O=C(O)C1C2CCC(O2)C1C(=O)Nc1ccc(OC(F)F)cc1 (configuration not stated) | inactive | 
CCOC(=O)c1ccccc1NC(=O)COC(=O)CC(C)(C)CC1=NS(=O)(=O)c2ccccc2N1 | inconclusive [inhibitor, single point] | 
CC1CCc2c(c3ccccc3n2C(=O)CCl)C1 (configuration not stated) | inconclusive [inhibitor, single point] | 
Cc1ccccc1OCCC(=O)OCC(=O)NC1CCS(=O)(=O)C1 (configuration not stated) | inactive | 
O=C(CSc1nnnn1-c1ccc2c(c1)OCCO2)Nc1nc2c(s1)CCCC2 | inconclusive [inhibitor, single point] | 
CCC1(c2ccc(F)cc2)NC(=O)N(CC(=O)N2c3ccccc3CC2C)C1=O (configuration not stated) | inconclusive [inhibitor, single point] | 
CCCNC(=O)/C(C#N)=C1\N=C(NC(=O)c2ccco2)c2ccccc21 | active: 16.4 µM | 
COc1ccc(S(=O)(=O)NCC(c2ccc(N(C)C)cc2)N2CCc3ccccc32)cc1F (configuration not stated) |  | inconclusive: -33.2% [inhibitor]
Cc1ccc(SC[C@H](C)CN2CC[C@H](NC(=O)OCc3ccccc3)CCC2=O)cc1 | inactive and active: 15.8 µM | 
O=C(O)c1c(Cl)c(Cl)c(Cl)c(Cl)c1-c1c2cc(I)c(=O)c(I)c-2oc2c(I)c(O)c(I)cc12 | inconclusive [inhibitor, partial curve, poor fit] | 
COc1cc(O)cc2cc3c(c(O)c12)C(=O)CC(C)(O)O3 (configuration not stated) | inconclusive [inhibitor, partial curve] | 
CCN(CC)c1ccc(N)cc1 | active: 1.84 µM | 
COc1ccc(/C=C2\CCCC3C2=NC(=S)NC3c2ccc(OC)cc2)cc1 (configuration not stated) | inactive | 
O=C(Cc1cccc2ccccc12)Nc1ccccc1 | active: 23.1 µM | 
Cc1ccc(C)c(N2CCN(C(=O)c3cc(S(=O)(=O)N4CCOCC4)cn3C)CC2)c1 | inconclusive [inhibitor, single point] | 
COc1ccc(NC(=O)C(c2ccccc2)n2c(=O)c(-c3cc4ccccc4[nH]3)nc3ccccc32)cc1 (configuration not stated) | active: 16.4 µM | 
COc1ccc(/C=C/C(=O)OCC(=O)NCc2ccccc2Cl)cc1OC | inactive | 
CC1CCN(c2ccc(S(=O)(=O)NC3=NCCCCC3)cc2[N+](=O)[O-])CC1 | inconclusive [inhibitor, partial curve] | 
